# According to article PMC4336329 (PLoS ONE, 2015):
# Among all 310,000 compounds or so, about 2,200 (0.71%) showed an effect of 50% or more. The effect is printed as a negative number. The list shows a part of the results.
# Molecular target: human ether-à-go-go-related gene (hERG) potassium channel (human, UniProt Q12809)
# Assay: primary screen, population patch clamp on CHO cells stably expressing hERG
# human ether-à-go-go-related gene (hERG) potassium channel, sequence (Q12809 whole entry, looked up): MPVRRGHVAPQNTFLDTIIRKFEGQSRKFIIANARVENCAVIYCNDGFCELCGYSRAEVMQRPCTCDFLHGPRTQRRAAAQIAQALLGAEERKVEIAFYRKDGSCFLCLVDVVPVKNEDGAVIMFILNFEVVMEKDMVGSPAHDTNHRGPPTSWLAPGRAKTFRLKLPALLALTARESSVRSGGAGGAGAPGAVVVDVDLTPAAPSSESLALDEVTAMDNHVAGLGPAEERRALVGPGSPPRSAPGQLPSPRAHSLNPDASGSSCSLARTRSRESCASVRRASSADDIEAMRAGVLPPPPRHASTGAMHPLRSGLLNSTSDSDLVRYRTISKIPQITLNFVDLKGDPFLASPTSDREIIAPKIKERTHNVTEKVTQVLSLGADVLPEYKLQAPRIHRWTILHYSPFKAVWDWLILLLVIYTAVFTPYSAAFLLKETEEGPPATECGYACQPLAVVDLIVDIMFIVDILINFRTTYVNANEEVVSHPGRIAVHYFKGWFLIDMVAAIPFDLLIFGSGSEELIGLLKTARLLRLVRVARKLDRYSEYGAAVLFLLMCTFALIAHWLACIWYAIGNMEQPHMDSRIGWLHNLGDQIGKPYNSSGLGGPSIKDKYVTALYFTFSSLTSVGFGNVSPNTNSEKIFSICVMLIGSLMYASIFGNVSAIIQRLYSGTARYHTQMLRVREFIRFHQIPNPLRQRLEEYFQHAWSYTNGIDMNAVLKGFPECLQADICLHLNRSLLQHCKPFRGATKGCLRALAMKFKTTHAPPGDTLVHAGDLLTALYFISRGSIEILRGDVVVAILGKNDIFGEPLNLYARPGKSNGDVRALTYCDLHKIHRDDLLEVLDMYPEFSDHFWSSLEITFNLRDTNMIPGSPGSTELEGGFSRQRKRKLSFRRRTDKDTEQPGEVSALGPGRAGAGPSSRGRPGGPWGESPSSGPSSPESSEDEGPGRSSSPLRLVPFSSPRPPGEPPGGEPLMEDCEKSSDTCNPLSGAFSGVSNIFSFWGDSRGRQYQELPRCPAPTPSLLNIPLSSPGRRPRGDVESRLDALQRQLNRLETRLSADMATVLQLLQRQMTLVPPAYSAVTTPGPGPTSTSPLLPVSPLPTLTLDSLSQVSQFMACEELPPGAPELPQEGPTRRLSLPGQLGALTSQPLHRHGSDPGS
row,SMILES,"hERG current change (%, negative = inhibition) at 1uM [%]"
1,C=CCC1(CN2CCCC2=O)C(=O)NC(=O)NC1=O,11.4
2,CCN(CC)C(=O)C(C)N(C#N)c1nc(NC(C)C)nc(NC(C)C)n1 (centres unmarked),-0.178
3,COC(=O)c1c(C)[nH]c(C(=O)C(C)Sc2nnc(-c3cc(OC)c(OC)c(OC)c3)o2)c1C (centres unmarked),7.99
4,O=C(Nc1ccc2c(c1)OCO2)c1cnn2c(C(F)(F)F)cc(-c3ccco3)nc12,6.26
5,CCc1cc2c(=O)n(Cc3ccco3)c(SCC(=O)N(C)C3CCS(=O)(=O)C3)nc2s1 (centres unmarked),-85.4
6,CC1CN(c2ccc(NC(=O)c3ccco3)cc2C(=O)O)CC(C)O1 (centres unmarked),8.66
7,COc1cccc(-n2c(Cc3cc(=O)[nH]c(=O)[nH]3)nnc2SCC(=O)Nc2ccccc2)c1,6.12
8,COCCNC(=O)CN1C(=O)/C(=C/c2ccccc2)Oc2ccc(C(C)(C)C)cc21,14.8
9,Cc1ccc(NS(=O)(=O)c2cc(C(=O)O)ccc2Cl)cc1,9.3
10,COc1cc(/C=N/NC(=O)Cn2cnc3c2c(=O)n(C)c(=O)n3C)cc(OC)c1OC,6.9
11,Cc1ccc(SC(=O)COc2ccc(C)c(C)c2)cc1,10.5
12,CCOC(=O)c1c(NC(=O)CCl)sc(C(=O)N(CC)CC)c1C,8
13,CSc1cccc(NC(=O)N2CCc3ccc(NC(=O)c4ccccn4)cc3C2)c1,9.3
14,COc1cc2c(cc1NC(=O)COCC(=O)O)oc1ccccc12,13.4
15,O=S(=O)(c1ccccc1)N1CCCc2ccccc21,15
16,CC(=O)c1cccc(NC(=O)N2CCCC2C(=O)NCc2ccccc2)c1 (centres unmarked),15.2
17,Cc1ccc(CNC(=O)CN(C)S(=O)(=O)c2cnc[nH]2)cc1,4.59
18,Cc1nc(SCC(=O)c2ccc(F)c(F)c2)[nH]c(=O)c1Oc1ccc(Cl)cc1,6
19,Cc1ccc(NC(=O)CSc2nnnn2-c2cccnc2)c(C)c1,14.9

row,SMILES,"hERG current change (%, negative = inhibition) at 1uM [%]"
1,O=C(CN1CCN(S(=O)(=O)N2CCOCC2)CC1)Nc1ccc(Cl)c(Cl)c1,-17.5
2,CCCCn1nnc(NC(=S)NC(=O)c2ccc(-c3cccc(Cl)c3Cl)o2)n1,11.7
3,CCn1c(SCC(=O)Nc2nc(C)cs2)nnc1C(NC(=O)c1ccccc1Cl)C(C)C (centres unmarked),3.19
4,O=C(CN1C(=O)NC(c2ccccc2)(c2ccccc2)C1=O)N1CCOCC1,7.69
5,O=c1[nH]cnc2c1sc1nc3c(c(-c4ccc(Cl)cc4)c12)CCC3,4.44
6,COc1ccc(C(=O)CCC(=O)NCCc2ccccc2F)cc1,11.9
7,CN(C(=S)NC(=O)c1ccc(Cl)cc1)C1CCCCC1,17.4
8,CC1SC(C)C(=O)N(CC(=O)NCc2ccc(F)cc2)C1=O (centres unmarked),11.1
9,Cc1ccc(NC(=S)N/N=C2/CCCCc3ccccc32)cc1,9.05
10,CCN(CC)CCOC(c1ccccc1)c1ccc(C)cc1.Cl (centres unmarked),-48.8
11,Nc1n[nH]c(-c2ccccc2[N+](=O)[O-])n1,12.3
12,COc1cc(O)c(C(CCN2CCCCC2)c2ccc(N(C)C)cc2)c(OC)c1 (centres unmarked),10.3
13,O=C(NCCc1ccccc1)C(NS(=O)(=O)c1cccc2nsnc12)c1ccccc1 (centres unmarked),3.48
14,Cn1ncc(Br)c1NC(=O)Nc1ccccc1,9.68
15,CN1CCN(NC(=S)Nc2ccc(OC(F)F)cc2)CC1,-9.34
16,CC1CCN(c2ccc(S(=O)(=O)Nc3cc(C(=O)O)cc(C(=O)O)c3)cc2[N+](=O)[O-])CC1,8.13
17,COc1ccc(N2CCN(C(=O)COC(=O)c3ccco3)CC2)cc1,10.7
18,CC1=C(C(=O)OC2CCCC2)C(c2coc3ccccc3c2=O)C2=C(CC(C)(C)CC2=O)N1 (centres unmarked),5.99
19,COCCCNC(CC(=O)Nc1ccc(OC)cc1OC)C(=O)O (centres unmarked),14.6

row,SMILES,"hERG current change (%, negative = inhibition) at 1uM [%]"
1,COc1ccc(-n2c(/C=C(\C)O)nc(=O)c3c(C)cc(C)nc32)cc1,1.91
2,Cc1ccc(NC(=O)c2c(C(F)(F)F)nn(C)c2SCc2cccc(C(F)(F)F)c2)cc1C,3.62
3,C=CCNC(=O)CC1C(=O)NCCN1Cc1c(F)cccc1Cl (centres unmarked),5.87
4,O=C(Nc1ncn[nH]1)c1cc(S(=O)(=O)Nc2cccc(C(F)(F)F)c2)ccc1Cl,15.6
5,Br.COc1ccc(-c2csc(Nc3ccc(S(N)(=O)=O)cc3)n2)cc1OC,7.31
6,CCCNC(=O)COC(=O)c1ccc(-c2ccccc2)cc1,11.2
7,COc1cccc(NC(=O)CN(C)C(=O)c2cc(S(=O)(=O)N3CCCCC3)ccc2Cl)c1,-0.123
8,Cc1c2ccccc2nc2ccccc12,10.3
9,COc1cccc(C(=O)NCc2nnc(SCC(=O)Nc3nccs3)n2-c2ccccc2)c1,11.3
10,OC(COc1ccc2ccccc2c1)CN1CCCC1 (centres unmarked),3.31
11,Nc1cccc(Nc2nc(OC(C(F)(F)F)C(F)(F)F)nc(OC(C(F)(F)F)C(F)(F)F)n2)c1,1.92
12,O=C(CSc1n[nH]c(=O)n1Cc1ccco1)c1ccc2c(c1)OCCO2,12.6
13,COc1ccc(C(=O)SC2=NCCS2)cc1OC,6.07
14,COc1ccc(CC(NC(C)=O)C(=O)NC2CCN(c3nc(C)cc(C)c3C#N)CC2)cc1OC (centres unmarked),12.7
15,Cn1nnc2cc(C(=O)NCc3ccco3)ccc21,4.39
16,CC(=O)CSc1nc2ccccc2s1,10.5
17,CSc1nc2nc3c(cc2c(=O)n1-c1ccccc1C)CCCC3,-0.747
18,CCCCS(=O)(=O)Nc1ccc(N2CCOCC2)c(S(=O)(=O)N2CCOCC2)c1,15.7
